# ChEMBL document CHEMBL4184142, “A Naturally Occurring Isoform-Specific Probe for Highly Selective and Sensitive Detection of Human Cytochrome P450 3A5” (J Med Chem, 2017)
# Substrate: COc1cc2c(c(OC)c1OC)-c1c(cc(O)c(OC)c1OC)C[C@H](C)[C@](C)(O)[C@H]2OC(=O)c1ccccc1
# Test: Substrate activity at recombinant human CYP3A4 expressed in bactosomes assessed as Km for 2-O-demethylation after 20 mins by Eadie-Hofstee plot method
# Assay type: ADME
protein,measurement,value
Cytochrome P450 3A4 (Homo sapiens) (protein) MALIPDLAMETWLLLAVSLVLLYLYGTHSHGLFKKLGIPGPTPLPFLGNILSYHKGFCMFDMECHKKYGKVWGFYDGQQPVLAITDPDMIKTVLVKECYSVFTNRRPFGPVGFMKSAISIAEDEEWKRLRSLLSPTFTSGKLKEMVPIIAQYGDVLVRNLRREAETGKPVTLKDVFGAYSMDVITSTSFGVNIDSLNNPQDPFVENTKKLLRFDFLDPFFLSITVFPFLIPILEVLNICVFPREVTNFLRKSVKRMKESRLEDTQKHRVDFLQLMIDSQNSKETESHKALSDLELVAQSIIFIFAGYETTSSVLSFIMYELATHPDVQQKLQEEIDAVLPNKAPPTYDTVLQMEYLDMVVNETLRLFPIAMRLERVCKKDVEINGMFIPKGVVVMIPSYALHRDPKYWTEPEKFLPERFSKKNKDNIDPYIYTPFGSGPRNCIGMRFALMNMKLALIRVLQNFSFKPCKETQIPLKLSLGGLLQPEKPVVLKVESRDGTVSGA,Km,5.3 µM
same,Vmax,2.46e-06 µmol/min
